In the supplement of paper PMC12217912:
The list shows a part of the results. Sequences were assembled here from the parent chain. Values near 0.05 are background.

B1: TEV protease; numbered along this chain (parent)
chain: MGESLFKGPRDYNPISSSICHLTNESDGHTTSLYGIGFGPFIITNKHLFRRNNGTLVVQSLHGVFKVKDTTTLQQHLVDGRDMIIIRMPKDFPPFPQKLKFREPQREERICLVTTNFQTKSMSSMVSDTSCTFPSGDGIFWKHWIQTKDGQCGSPLVSTRDGFIVGIHSASNFTNTNNYFTSVPKNFMELLTNQEAQQWVSGWRLNADSVLWGGHKVFMVKPEEPFQPVKEATQL

Variants of: B1
Assay: raw area under fraction-flipped curve 0-4 h after induction (AUC4h, not background-subtracted), DNA-recorder readout of cleavage of the substrate (dimensionless); higher = more cleavage of the substrate by the protease variant
Details: temperature: 34 °C; time window: 0-4 h after rhamnose induction
Experimental: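 In vivo DNA recorder in E. coli TOP10(DE3) ΔrhaA at 34 °C. Each TEVp single-site mutant (parent TEVp 0) is paired with a single-site variant of the 7-mer TEVs (canonical ENLYFQ|S). The substrate sits between flexible linkers in a Bxb1-sfGFP-TEVs-SsrA fusion, so cleavage stabilises Bxb1 and speeds flipping of a recombination array, read by NGS. The value is the raw area under the fraction-flipped curve over 0-4 h after rhamnose induction (AUC4h), with ≥20 reads per time point. It is not background-subtracted; inactive controls average about 0.047.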
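Further: Bxb1 expression induced with 0.2% (w/v) L-rhamnose at OD600 near 0.5, cultures sampled hourly, flipped fraction per protease–substrate barcode pair counted by paired-end Illumina sequencing.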

Row | Variant | area with substrate ENAYFQS | area with substrate ENDYFQS | area with substrate ENEYFQS | area with substrate ENFYFQS | area with substrate ENGYFQS | area with substrate ENHYFQS | area with substrate ENIYFQS | area with substrate ENNYFQS | area with substrate ENQYFQS | area with substrate ENRYFQS | area with substrate ENSYFQS | area with substrate ENTYFQS | area with substrate ENVYFQS | area with substrate ENYYFQS | area with substrate ENCYFQS | area with substrate ENPYFQS | area with substrate ENMYFQS | area with substrate ENWYFQS | area with substrate ENKYFQS
1 | R160G | 0.0674 | 0.0575 | 0.0617 | 0.0633 | 0.0372 | 0.0573 | 0.11 | 0.0641 | 0.0812 | 0.0448 | 0.0708 | 0.0732 | 0.0685 | 0.0508 | – | – | – | – | –
2 | R160Q | 0.064 | 0.0621 | – | 0.0726 | – | 0.0581 | 0.1 | 0.0519 | 0.0398 | 0.0578 | 0.0654 | 0.0803 | 0.0713 | 0.107 | 0.0562 | 0.0652 | – | – | –
3 | D161Q | 0.0612 | 0.052 | 0.0473 | 0.057 | 0.0448 | 0.0579 | – | 0.0452 | 0.0491 | 0.0735 | 0.0297 | 0.0589 | 0.0533 | – | – | – | 0.0546 | 0.0397 | –
4 | V165C | 0.059 | 0.0598 | 0.0698 | 0.076 | 0.0509 | 0.0584 | 0.0993 | – | – | 0.0615 | 0.0596 | 0.0616 | 0.0723 | – | – | 0.0585 | – | 0.0293 | –
5 | V165N | 0.0463 | – | 0.0473 | 0.0612 | – | – | – | 0.0461 | – | – | – | 0.0545 | – | – | – | 0.0206 | – | – | –
6 | G166C | 0.0492 | 0.0663 | 0.06 | 0.0579 | 0.0597 | 0.0411 | 0.0591 | – | 0.0808 | 0.0559 | 0.0562 | 0.0591 | 0.0468 | 0.0578 | 0.0672 | 0.0459 | 0.0454 | 0.0359 | 0.0695
7 | I167D | 0.0379 | 0.0553 | 0.053 | – | 0.0573 | 0.0642 | 0.0431 | – | 0.055 | 0.0458 | 0.0513 | 0.0359 | 0.0513 | – | 0.0512 | 0.0527 | – | 0.0533 | 0.0509
8 | I167G | 0.0253 | – | 0.0646 | 0.0562 | – | 0.0508 | 0.0606 | – | 0.055 | – | 0.0474 | 0.0464 | – | – | 0.0336 | – | 0.0598 | – | 0.065
9 | H168P | 0.0731 | – | 0.056 | – | 0.0532 | – | – | – | – | 0.0628 | – | 0.0561 | 0.0556 | – | 0.0485 | 0.0533 | 0.0604 | – | –
10 | H168R | 0.0618 | 0.0584 | – | 0.0739 | 0.0691 | 0.0387 | – | 0.0658 | 0.0664 | – | 0.0629 | 0.0626 | 0.0464 | 0.0533 | 0.0542 | – | 0.0659 | – | –
11 | H168S | 0.0601 | 0.0528 | – | 0.0566 | – | – | 0.0635 | – | 0.0666 | 0.0669 | 0.0537 | 0.0547 | – | 0.0686 | – | – | 0.0675 | – | 0.0494
12 | H168T | 0.0571 | 0.0693 | 0.0853 | – | – | – | – | – | – | – | 0.0565 | 0.0479 | 0.0658 | – | 0.0545 | 0.0578 | 0.0481 | 0.0094 | 0.0547
13 | H168V | 0.0577 | 0.0695 | 0.0642 | 0.048 | 0.0619 | 0.0669 | 0.0609 | – | 0.056 | – | 0.0729 | – | 0.0551 | 0.0468 | 0.0493 | – | – | – | 0.0664
14 | T174L | 0.0521 | – | 0.0685 | – | – | – | – | – | – | – | 0.0272 | – | – | – | – | – | 0.0712 | – | –
15 | T174R | 0.0384 | 0.0611 | 0.0736 | 0.0661 | 0.0769 | 0.0634 | 0.0412 | 0.0579 | 0.0684 | 0.0658 | 0.0572 | 0.0679 | 0.129 | 0.0805 | 0.0636 | 0.0578 | 0.0729 | 0.0529 | –
16 | T176P | 0.0561 | – | 0.0593 | 0.0576 | 0.0695 | 0.0541 | 0.0726 | – | 0.0682 | 0.0599 | – | – | – | – | 0.0746 | – | 0.0474 | 0.0551 | –
17 | Y179M | 0.0853 | – | 0.0607 | – | – | – | – | 0.0678 | 0.0499 | 0.0609 | – | – | 0.0638 | – | – | 0.0565 | – | 0.0533 | 0.0862
18 | V183K | 0.0634 | 0.0516 | 0.0681 | 0.0473 | 0.0617 | 0.0598 | 0.0573 | 0.06 | 0.0555 | 0.0596 | 0.051 | 0.0595 | 0.0648 | – | 0.0665 | 0.0651 | 0.0485 | – | –
19 | P184A | 0.0529 | 0.0581 | 0.0686 | 0.0614 | 0.0574 | 0.0591 | 0.0783 | 0.0534 | 0.0601 | 0.0528 | 0.0594 | 0.0585 | 0.0656 | 0.0606 | 0.0615 | 0.0534 | 0.0701 | – | 0.0537
20 | P184Q | 0.0553 | 0.0531 | 0.0477 | 0.0612 | – | 0.0475 | 0.0928 | 0.0546 | 0.0606 | 0.0426 | 0.0456 | 0.0519 | 0.0534 | – | 0.0577 | 0.0588 | – | 0.0617 | –
21 | P184R | 0.0491 | 0.0434 | 0.0555 | 0.0524 | 0.0591 | – | – | – | 0.035 | 0.0497 | 0.0634 | – | – | – | 0.0607 | 0.0695 | – | – | –
22 | N186V | 0.0564 | 0.0628 | – | – | – | – | 0.0791 | 0.0465 | 0.0556 | – | – | 0.0634 | – | – | – | 0.0708 | – | – | –
23 | F187P | 0.0424 | 0.0368 | 0.0455 | – | – | 0.0436 | – | – | 0.0491 | 0.0503 | 0.0359 | 0.0501 | – | – | – | 0.0507 | 0.0634 | – | 0.071
24 | L191C | 0.0659 | 0.0698 | 0.0648 | 0.0598 | 0.0637 | 0.0581 | 0.0867 | 0.0638 | 0.059 | 0.0601 | 0.0662 | 0.0598 | 0.0698 | 0.0781 | 0.0657 | 0.0705 | 0.0745 | – | 0.0607
25 | T192K | 0.057 | – | 0.0679 | 0.0608 | – | 0.0518 | 0.0064 | – | 0.0574 | 0.0561 | 0.0633 | – | – | 0.0621 | – | – | 0.0822 | – | –
26 | T192L | 0.0629 | 0.0542 | 0.0415 | 0.0512 | 0.0772 | 0.0515 | 0.112 | 0.0572 | 0.0643 | 0.0651 | 0.059 | 0.0653 | 0.084 | – | 0.0597 | 0.055 | – | – | 0.0685
27 | T192N | 0.0676 | 0.0643 | 0.0458 | – | 0.065 | 0.0615 | 0.133 | 0.0533 | 0.0633 | 0.0437 | 0.0688 | 0.0596 | 0.0631 | 0.0528 | 0.0684 | 0.0768 | 0.0606 | 0.0919 | 0.0672
